Results from PubChem BioAssay AID493208 (National Center for Advancing Translational Sciences (NCATS), 2011).
About 340 (0.77%) of roughly 44,000 compounds were called active. Inconclusive results, whose numbers are uncertain, are shown with a selection of clear calls. Calls come from the whole dose curve; as a rule, active = well fitted inhibition curve with a large enough effect; inconclusive = small, poorly fitted or top-dose-only effect; inactive = flat fitted curve, though single readings scatter. No potency is given beside an inconclusive call; the fits are too rough.

Test: Acumen qHTS Assay for Inhibitors of the mTORC1 Signaling Pathway in MEF (Tsc2-/-, p53-/-) Cells: Sytravon; note: nearly all actives have a fitted effect of over 50% in size
Details: phospho-rpS6 immunofluorescence/PI, 24 h; series mostly up to 38.3 µM
Summary of the method: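 Tsc2-/-, p53-/- MEFs (empty-vector stable line) in DMEM + 10% FBS were treated with compounds 24 h at 37 degree Celsius, fixed, and immunostained for phospho-rpS6 (Alexa-488) with propidium iodide counterstain. Laser-scanning cytometry gave % positive cells, normalized against 7.5 nM rapamycin and DMSO.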
Potency is the fitted concentration of half-maximal effect; tags give direction and shape of the fitted curve.

Row | Compound | Potency
1 | CCc1ccc(-n2nc(C)c3c(C(=O)Nc4cc(OC)cc(OC)c4)cc(C)nc32)cc1 | inconclusive [falling, partial curve, poor fit]
2 | O=C(CSC1=Nc2ccccc2C2=NC(Cc3ccccc3)C(=O)N12)Nc1ccccc1F (configuration not stated) | inconclusive [activator, partial curve, poor fit]
3 | Cc1ccc(C(=O)Nc2c(C(=O)NCc3ccc(Cl)cc3)sc3nc(C)cc(C)c23)cc1 | inconclusive [falling, partial curve, poor fit]
4 | COc1cc(C2CC(=O)c3c([nH]c(C(=O)OC4CCCCC4)c3C)C2)cc(OC)c1OC (configuration not stated) | inconclusive [falling, partial curve, poor fit]
5 | CCCCn1c2ccc(F)cc2c2nnc(SCCN(CC)CC)nc21 | inconclusive [falling, single point]
6 | Cc1ccccc1NC(=O)c1sc2nc3c(cc2c1N)CCCC3 | inconclusive [falling, full curve]
7 | Cc1ccc(C)c(N2CCN(C(=O)C3CCN(c4nc5ccc(C)cc5[nH]4)CC3)CC2)c1 | inconclusive [falling, partial curve]
8 | CCN(CC)CCCNC(=O)c1ccc(-c2nc(CN3CCc4ccccc43)c(C)o2)cc1 | inconclusive [falling, single point]
9 | NC(=O)c1ccccc1NC(=O)c1ccc(-c2ccc(Br)cc2)o1 | inconclusive [falling, partial curve, poor fit]
10 | COc1ccc(NC(=O)C2=C(C)Nc3nc(SCc4ccccc4C)nn3C2c2cc(OC)c(O)c(OC)c2)cc1 (configuration not stated) | inconclusive [falling, partial curve, poor fit]
11 | COc1ccc(OC)c(NC(=O)CSc2nnc3ccc4ccccc4n23)c1 | inactive
12 | COc1ccc(-c2noc(CC(=O)Nc3ccc(F)cc3F)n2)cc1 | inconclusive [falling, single point]
13 | Cc1ccc(-c2nnc(Nc3cccc(O)c3)c3ccccc23)cc1S(=O)(=O)N1CCOCC1 | inactive
14 | Cc1ccc2nc(N3CCC(C(=O)N4CCN(c5cccc(Cl)c5)CC4)CC3)[nH]c2c1 | inconclusive [falling, partial curve]
15 | Fc1ccc(Nc2c3c(nc4ccccc24)CCC3)cc1 | inactive
16 | CCOC(=O)c1ccc(NC(=O)CC2C(=O)OCCN2CC)cc1 (configuration not stated) | inconclusive [falling, single point]
17 | CCN(C(=O)C1CCCN(S(=O)(=O)c2c(C)noc2/C=C/N(C)C)C1)c1cccc(C)c1 (configuration not stated) | inconclusive [falling, single point]
18 | Cc1ccc2c(CNCc3cccs3)c(C(=O)O)n(Cc3ccc(F)cc3)c2c1 | inconclusive [falling, single point]
19 | Cn1ncc2c(NCc3cccc(Cl)c3)ncnc21 | inconclusive [falling, single point]
20 | COC(=O)c1sccc1S(=O)(=O)N(CC(=O)Nc1ccc(C)cc1)c1ccccc1 | inconclusive [falling, single point]
21 | CCN1CCOC(=O)C1CC(=O)Nc1ccccc1C(F)(F)F (configuration not stated) | inconclusive [falling, single point]

Row | Compound | Potency
22 | Cc1cccc(N2CCN(C(=O)Cn3c(=O)c4cccn4c4ccc(F)cc43)CC2C)c1 (configuration not stated) | inconclusive [falling, single point]
23 | COc1ccc(N2CCN(S(=O)(=O)c3c(C)nc4scc(C)n4c3=O)CC2)cc1 | inconclusive [falling, full curve, poor fit]
24 | Cc1ccc(-c2nc3ncccc3o2)cc1NC(=O)COc1ccc(C(C)C)cc1 | inconclusive [falling, single point]
25 | COc1ccc(C)cc1Nc1c2c(nc3ccccc13)CCC2 | inconclusive [falling, partial curve, poor fit]
26 | Cc1ccccc1OCC(=O)Nc1ccc2[nH]c(=O)sc2c1 | inactive
27 | Cc1nc2c(-c3ccccc3)c(C)[nH]n2c(=O)c1Cc1ccc(Br)cc1 | inconclusive [falling, single point]
28 | COc1ccccc1NC(=O)C1=C(C)Nc2nc(-c3ccco3)nn2C1c1cccc(C)c1 (configuration not stated) | inconclusive [falling, single point]
29 | Cc1cc(Cl)ccc1NC(=O)C1CCCN1S(=O)(=O)c1ccc2c(c1)CCCC(=O)N2 (configuration not stated) | inconclusive [falling, single point]
30 | CCOC(=O)c1cc2c(=O)n3ccccc3nc2n(CC(C)C)c1=NC(=O)C(C)(C)Oc1ccc(Cl)cc1 | inactive
31 | O=C(Cn1c(-c2cccs2)cc2ccccc21)NCCCN1CCN(c2cccc(Cl)c2)CC1 | inactive
32 | COc1cc(C(=O)Nc2sc3c(c2C#N)CCCC3)c(Br)c(OC)c1OC | inactive
33 | Cn1nnnc1SCCCNCc1cc(Br)ccc1OCc1ccccc1 | inactive
34 | Cc1cc(-c2ccc(S(=O)(=O)Nc3cccc(C)c3C)s2)on1 | inconclusive [falling, partial curve]
35 | COC(=O)c1ccc(OCC2c3cc(OC)c(OC)cc3CCN2C(=O)c2ccc(OC)cc2)cc1 (configuration not stated) | inactive
36 | CC(=O)N1CCCC1c1nc2ccccc2n1Cc1c(F)cccc1Cl (configuration not stated) | inactive
37 | CCCCn1c(=O)c2oc3ccccc3c2n(CC(=O)Nc2cc(C)ccc2C)c1=O | inactive
38 | COc1ccc(C)cc1NC(=O)C(NS(=O)(=O)c1cccs1)c1ccccc1 (configuration not stated) | inconclusive [falling, single point]
39 | Cc1cc(C)cc(NC(=O)c2nnn(Cc3cccc(Br)c3)c2N)c1 | inactive
40 | CC(=O)Nc1ccc(NC(=O)CCc2c(C)nc3c(c(C)nn3-c3ccc(C)cc3)c2C)cc1 | inactive
41 | COc1ccc(CNC(=O)CSCc2nc(-c3ccccc3F)oc2C)cc1 | inactive
42 | COc1ccccc1NC(=O)c1c(NCc2sccc2C)sc2c1CCCCC2 | inconclusive [falling, partial curve, poor fit]
